Out of some 310,000 compounds screened, about 14,000 (4.5%) showed an effect of 50% or more. Effects have a minus sign here. The list shows a part of the results.
Target: human ether-à-go-go-related gene (hERG) potassium channel (human, UniProt Q12809)
Experiment: primary screen, population patch clamp on CHO cells stably expressing hERG
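Also: peak tail current of the secondary pulse compared with the same well before compound.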

Chain of human ether-à-go-go-related gene (hERG) potassium channel (Q12809 whole entry, looked up): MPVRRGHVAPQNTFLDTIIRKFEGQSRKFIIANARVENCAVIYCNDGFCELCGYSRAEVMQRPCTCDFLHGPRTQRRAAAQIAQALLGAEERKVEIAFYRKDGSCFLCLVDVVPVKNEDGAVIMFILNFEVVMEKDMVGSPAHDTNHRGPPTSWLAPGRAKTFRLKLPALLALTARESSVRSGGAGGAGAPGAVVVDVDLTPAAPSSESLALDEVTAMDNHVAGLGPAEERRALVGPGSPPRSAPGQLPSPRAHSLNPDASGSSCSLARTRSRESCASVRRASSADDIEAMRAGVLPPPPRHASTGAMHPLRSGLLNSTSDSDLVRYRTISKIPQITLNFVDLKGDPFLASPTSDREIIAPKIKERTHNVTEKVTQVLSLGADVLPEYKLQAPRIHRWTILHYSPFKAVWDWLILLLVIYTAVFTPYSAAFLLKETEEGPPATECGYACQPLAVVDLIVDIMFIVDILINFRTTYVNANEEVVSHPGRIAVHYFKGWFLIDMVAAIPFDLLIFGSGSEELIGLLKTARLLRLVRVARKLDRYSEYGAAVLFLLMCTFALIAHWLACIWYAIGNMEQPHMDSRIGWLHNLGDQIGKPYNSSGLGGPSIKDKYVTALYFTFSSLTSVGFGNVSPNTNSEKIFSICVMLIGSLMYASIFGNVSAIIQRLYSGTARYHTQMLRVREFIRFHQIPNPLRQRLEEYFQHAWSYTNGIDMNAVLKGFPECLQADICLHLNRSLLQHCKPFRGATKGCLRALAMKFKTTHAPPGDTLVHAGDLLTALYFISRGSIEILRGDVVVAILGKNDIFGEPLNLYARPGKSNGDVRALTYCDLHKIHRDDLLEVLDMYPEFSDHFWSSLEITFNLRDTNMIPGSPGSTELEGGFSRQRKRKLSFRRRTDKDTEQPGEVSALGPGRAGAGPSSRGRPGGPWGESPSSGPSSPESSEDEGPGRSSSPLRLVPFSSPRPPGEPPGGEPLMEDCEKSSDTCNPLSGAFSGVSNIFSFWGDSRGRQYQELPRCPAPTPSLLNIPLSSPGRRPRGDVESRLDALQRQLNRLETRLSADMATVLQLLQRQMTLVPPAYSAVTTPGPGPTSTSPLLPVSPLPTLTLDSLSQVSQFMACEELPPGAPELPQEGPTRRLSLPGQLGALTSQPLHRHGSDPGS

SMILES | hERG current change (%, negative = inhibition) at 10uM
CCC(=O)Nc1nnc(-c2ccco2)o1 | 8.23%
Cc1ccc2[nH]c(=O)c(CN(Cc3ccco3)S(=O)(=O)c3c(C)ccc4nsnc34)cc2c1 | 12.6%
CCc1ccc(OCC(=O)Nc2ccc(CN3CCCCC3)cc2)cc1 | -18%
C[C@H]1OC[C@@H](C[N+](C)(C)C)O1.[I-] | 6.77%
COC(=O)Nc1nn(-c2ccc(C)cc2)c(=O)c(C#N)c1C | 11.2%
Cc1ccc(S(=O)(=O)NCCOc2nc(N(C)C)nc(N(C)C)n2)cc1 | -5.54%
Cc1cc(-c2ccccc2)nc2cc(C(=O)NCc3ccco3)nn12 | -55.9%
Cc1cc(NC(=O)Cn2cnc3c(nnn3-c3cccc(F)c3)c2=O)no1 | 5.01%
Cc1ccc(Cl)cc1NC(=O)C1CCCN1S(=O)(=O)c1ccc(-c2ccc(=O)[nH]n2)s1 (stereo not shown) | -65.4%
O=C(c1cccc(NS(=O)(=O)c2ccc(F)cc2)c1)N1CCN(c2ccccc2)CC1 | -22.7%
Cc1nc2sc(C(c3ccc(F)cc3)N3CCOCC3)c(O)n2n1 (stereo not shown) | 9.62%
Cl.N=c1ccn(Cc2cccc(F)c2)cc1 | 16.4%
CN(C)CC#CCC(O)(c1ccccc1)C1CCCCC1 (stereo not shown) | 3.32%
Cc1cccc(COc2coc(CN3CCN(C(=O)c4ccco4)CC3)cc2=O)c1 | -50.7%
O=C(Cc1ccc(S(=O)(=O)N2CCOCC2)s1)NCCC(c1ccccc1)c1ccccc1 | -54.8%
CC(C)CC(=O)Nc1nnc(SCC(=O)NCC2CCCO2)s1 (stereo not shown) | 0.385%
CNC(=O)c1ccc(NC(=O)CC23CC4CC(CC(C4)C2)C3)cc1 | 17.9%
COCC(=O)Nc1cc(OC)c(Cl)cc1OC | -1.61%
CCOc1ccc(N(C(C)C(=O)N2CCCC2)S(C)(=O)=O)cc1 (stereo not shown) | 17.5%
CSc1nc2nccc(-c3ccc(-c4ccccc4)cc3)n2n1 | 8.18%
Cc1ccc(N2C(=O)C3C4C=CC(CNC(=S)Nc5ccc(F)cc5)(O4)C3C2=O)cc1 (stereo not shown) | -13%
CCc1ccc(NC(=O)CSc2nc(=O)n3cc(C)ccc3n2)cc1 | -24.6%

SMILES | hERG current change (%, negative = inhibition) at 10uM
O=C(NCCc1ccc(Cl)cc1)c1cc2ccccn2n1 | -4.22%
COc1cccc(CNC(=O)Cn2ncc3c(=O)oc4ccccc4c32)c1 | 0.961%
COC(=O)C(C)Sc1nc2c(cnn2-c2ccc(C)cc2)c(=O)[nH]1 (stereo not shown) | 3.83%
CCOC(=O)c1c(NC(=O)c2ccccc2Cl)sc2c1CCc1ccccc1-2 | 35.3%
COc1ccc(-c2[nH]ncc2CN(C)Cc2cnccn2)c(OC)c1 | 14%
CCN(CC)CC(=O)Nc1c(C)cccc1C.Cl.O | -9.9%
CCCCn1c2ccccc2c2cc(CC(N)=O)ccc21 | 0.491%
Cc1ccc(Cl)cc1NC(=O)COC(=O)C1CCCC1 | -75.8%
COc1ccc2cc(C3CC(c4ccco4)=NN3S(C)(=O)=O)c(Cl)nc2c1 (stereo not shown) | -48%
O=C(Nc1ccc([N+](=O)[O-])cn1)c1cccnc1 | 9.39%
Cc1c(C(C)(C)O)[nH]c2ccc(C(F)(F)F)cc12 | -10.9%
O=C(NCc1cccnc1)c1cccnc1Sc1ccc(Cl)cc1 | -24.6%
N#CC1(NC(=O)COC(=O)c2cc([N+](=O)[O-])ccc2N2CCCC2)CCCCC1 | -29.8%
Cn1c(=O)c2[nH]c(CCCC(=O)O)nc2n(Cc2ccccc2)c1=S | 16.1%
COc1cc(NC(=S)NCCCN2CCOCC2)c(OC)cc1NC(=O)c1ccco1 | -3.59%
Cc1cc(C(=O)N/N=C/c2c(CO)cnc(C)c2O)c2ccccc2n1 | 32.1%
CCOC(=O)c1c(NC(=O)CCl)sc(CN(C)C)c1-c1ccccc1.Cl | -24.9%
CC1CCN(C(=O)C2CCC(CNc3c(N4CCCCC4)c(=O)c3=O)CC2)CC1 (stereo not shown) | 9.39%
COCc1ccc(C(=O)N2CCCC(C(=O)c3ccc(SC)cc3)C2)o1 (stereo not shown) | -41.6%
C[C@@]12CC[C@H]3OC(=O)C=C3C1CC[C@@]13CC(CCC12)[C@](CO)(O[C@H]1O[C@H](CO)[C@@H](O)[C@H](O)[C@H]1O)C3 (stereo partly shown) | 20.3%
Cc1sc2nc(CSC(C)C(=O)N3CCOCC3)[nH]c(=O)c2c1C (stereo not shown) | 20%
S=c1[nH]nc(-c2ccco2)n1/N=C/C=C/c1ccccc1 | 16.7%

SMILES | hERG current change (%, negative = inhibition) at 10uM
C=CCn1c(=S)[nH]c2cc(-c3ccccc3)sc2c1=O | 23.4%
CC(=O)Nc1ccc(Nc2nc(C)nc3c2oc2ccccc23)cc1 | 13.4%
CC(C)(C)c1ccc(OCC(=O)Nc2cccc(S(=O)(=O)NC3=NCCCCC3)c2)cc1 | -18.9%
CN(C)c1ccc(NC(=O)CN2C(=O)CN=C(c3ccccc3)c3ccccc32)cc1 | -0.822%
COc1ccc(OC)c(S(=O)(=O)NC(C)c2cnn(-c3ccccn3)c2C)c1 (stereo not shown) | 8.14%
CCCS(=O)(=O)C/C(N)=N/OC(=O)c1ccc(Cl)cc1 | -5.58%
COc1ccc(/C=C2/C(=O)NC(=S)N(C3CC3)C2=O)cc1CN1C(=O)c2ccccc2C1=O | -8.62%
COc1ccccc1-c1c(C)nn2c(N3CCN(c4ccccc4OC)CC3)cc(C)nc12 | 3.75%
CCN(CC)C(=O)CSc1nc2c(sc(=S)n2-c2ccccc2)c(=O)[nH]1 | 16%
CNC(=O)Oc1ccc2c(c1)[C@]1(C)CCN(C)[C@@H]1N2C | -2.51%
C=CCOc1c(Br)cc(CNc2ccc(NC(=O)C(C)C)c(OC)c2)cc1OCC | -9.97%
c1ccc(-c2nc(-c3ccccn3)nc(-c3ccccn3)n2)nc1 | -2.75%
O=C(NC(Cc1ccccc1)C(=O)NCc1ccccn1)c1ccco1 (stereo not shown) | 3.3%
CCOc1ccc(CN2CCN(Cc3[nH]c4ccccc4c3C)CC2CCO)cc1 (stereo not shown) | -75.8%
O=C(O)/C=C/c1cccnc1 | -0.782%
NS(=O)(=O)c1ccc(CCNC(=O)c2ccc(Cn3c(=O)[nH]c4ccccc4c3=O)cc2)cc1 | -3.26%
COc1ccc(-c2onc3ccc(Cl)cc23)cc1 | 19.5%
CCS(=O)(=O)N1CCC(C(=O)NCc2ccccn2)CC1 | -8.31%
COc1ccccc1C(=O)NCc1ccccc1 | 12.8%
CCCOc1c(Br)cc(C(N)=O)cc1OCC | -5.13%
COCCCNC(=S)NNC(=O)C(O)(c1ccccc1)c1ccccc1 | -2.56%
CC1CCCC(NC(=O)COC(=O)[C@@H](NC(=O)c2ccco2)C(C)C)C1C (stereo partly shown) | -2.36%

SMILES | hERG current change (%, negative = inhibition) at 10uM
CC(=O)c1c(C(=O)O)c2ccccc2[nH]c1=O | 11.4%
c1ccc2c(-c3c[nH]c4ccccc34)c3ccccc3nc2c1 | 19.3%
Cc1ccc(CCNC(=O)c2ccc(CS(=O)(=O)Cc3ccccc3F)o2)cc1 | -18.2%
Cc1ccc(C(C(=O)NC2CCCCC2)N(CC2CCCO2)C(=O)CNC(=O)c2cccs2)cc1 (stereo not shown) | -5.61%
CSc1nc(O)c(C(c2ccc(C)cc2)c2c(O)nc(SC)[nH]c2=O)c(=O)[nH]1 | 6.48%
CC(CS(=O)(=O)c1cccc2cccnc12)N1CCCCC1 (stereo not shown) | 11.8%
CCOC(=O)c1ccc(N2CCOCC2)c(NC(=O)c2c(-c3ccccc3)noc2C)c1 | -20.3%
O=C(O)C1CC(=O)N(CCc2ccc(F)cc2)C1 (stereo not shown) | -8.39%
COc1ccc(CCNC(=O)CCOc2ccc(C)cc2)cc1OC | 12.4%
CCOC(=O)c1cnc2ccccc2c1Nc1cccc(C(=O)O)c1.Cl | 15.3%
COc1ccc(OC)c(NC(=O)CN(c2ccc(OC)c(Cl)c2)S(C)(=O)=O)c1 | -9.11%
O=c1[nH]c(=O)n(CCc2ccccc2)c(O)c1C=NCCN1CCNCC1 | -6.04%
CC(C)NC(=O)c1cc(-c2ccc3c(c2)OCO3)on1 | 7.72%
Cc1ccc(C(=O)Nc2ccccc2C(=O)NC(Cc2c[nH]c3ccccc23)C(=O)O)cc1 (stereo not shown) | 15.8%
COc1ccc(-c2cc(=O)c3cc(OC)c(OC)cc3[nH]2)cc1 | -5.83%
COc1ccc(Br)cc1C(=O)NCc1cccnc1 | -19.2%
Cc1ccc(S(=O)(=O)N2CCN(c3ccc(C(=O)N4CCOCC4)cc3[N+](=O)[O-])CC2)cc1 | -59%
Cc1c(C=Nc2ccc(S(=O)(=O)N(C)C)cc2)c(O)[nH]c(=O)c1C#N | 15%
O=C(CC1SC(=Nc2ccc(OC(F)F)cc2)N(CCN2CCOCC2)C1=O)Nc1ccc(F)cc1F (stereo not shown) | -82.9%
CC(C)c1ccc(OCc2cccc(C(=O)N/N=C/c3cccnc3)c2)cc1 | -5.29%
CCOc1ccccc1NC(=O)c1nc[nH]c1C(=O)Nc1ccccc1OCC | 16.2%
NC(=O)C1CCN(C(=O)CCC(=O)N2CCOc3ccc(Cl)cc32)CC1 | 15.7%

— PMC4336329 (PLoS ONE, 2015)
